Among all 52,000 compounds or so, about 4,300 (8.3%) were called active. No stated cut-off is given here; in the data, active means survival mostly below about 52% (no sharp cut-off); inactive means mostly above about 56%. The list shows a part of the results.
system: DeltatarO mutant; experiment: growth inhibition of S. aureus wild type versus tarO mutant, primary screen, teichoic acid synthesis inhibitors, RN4220, OD600 (AID 463173); conditions: OD600, 18 h, stronger effect = lower value, screened at 18.75 µg/mL (by protocol)

SMILES | survival
Cc1ccc(/C=C/c2onc(C)c2S(=O)(=O)N2CCC(C(=O)Nc3ccccc3C(F)(F)F)CC2)cc1 | inactive: 75%
CC(=O)c1ccc(N2CCN(c3ncnc4c3c(-c3ccccc3)cn4-c3ccc(Cl)cc3)CC2)cc1 | inactive: 91%
CCCCSc1nnc2n(-c3ccc(OC)cc3)c(=O)c3c4c(sc3n12)COC(C(C)C)C4 (centres undefined) | inactive: 52%
N#C/C(=C\c1cn(CC(=O)NCC2CCCO2)c2ccccc12)C(=O)NCC1CCCO1 (centres undefined) | inactive: 105%
CCOC(=O)c1cc(S(=O)(=O)Nc2cc(F)ccc2C)[nH]n1 | inactive: 60%
CCCc1nn2c(=O)cc(COC(=O)c3ccccc3NC(=O)COc3ccccc3)nc2s1 | inactive: 95%
CCc1ccc(NC(=O)Cn2c(=O)n(CCC(C)C)c(=O)c3cccnc32)cc1 | inactive: 76%
O=C(Cc1ccc(Cl)cc1)N1CCOCC1 | inactive: 95%
COc1ccccc1NC(=O)c1c(NCc2ccc(C)o2)sc2c1CCCCC2 | inactive: 77%
CCOC(=O)N1CCc2c(sc3c2C(=O)NC(c2cc(OC)c(OC)c(OC)c2)N3)C1 (centres undefined) | inactive: 60%
CC(=O)Nc1nonc1-c1nnc(SCc2ccccc2F)n1C | inactive: 46%
CCc1ccccc1NS(=O)(=O)c1ccc2c(c1)CC(=O)N2 | inactive: 99%
COc1ccc(-n2cc(C(=O)NCCc3cc(OC)ccc3OC)c3ccccc3c2=O)cc1 | active: 55%
CCC(C(=O)Nc1cccc(-c2nc3cccnc3s2)c1C)c1ccccc1 (centres undefined) | inactive: 92%
CCOC(=O)c1c(C)[nH]c(C)c1S(=O)(=O)N1CCCC(C(=O)NCc2ccc(N(C)C)cc2)C1 (centres undefined) | inactive: 89%
O=C(CSc1nnc(-c2ccco2)n1CC1CCCO1)c1ccccc1 (centres undefined) | inactive: 79%
CCOC(=O)c1ccc(-c2ccc(C=C(C#N)C#N)o2)cc1 | inactive: 87%
COC(=O)/C(C#N)=C/c1ccc(-c2ccccc2)o1 | inactive: 75%
CC(C)CC(=O)Nc1nnc(S(=O)(=O)N(C)Cc2ccc(Cl)cc2)s1 | inactive: 75%
CNC(=O)CSc1nc2cc3c(cc2cc1C)OCCO3 | inactive: 77%
CNC(=O)CSc1cn(CC(=O)N2CCCCCC2)c2ccccc12 | inactive: 97%
CC1=C(C(=O)Nc2ccc(C)cc2C)C(c2cccs2)n2nc(SCc3cccc(C)c3)nc2N1 (centres undefined) | inactive: 125%
COc1cccc(CNC(=O)Cn2nc(-c3ccc(Cl)cc3)ccc2=O)c1 | inactive: 135%

SMILES | survival
CC(=O)c1ccc(NC(=O)c2cc(C)nc3c2c(C)nn3-c2ccc(C)cc2)cc1 | inactive: 102%
Cc1cccc2c1N(Cc1ccccc1OCCC(C)C)C(=O)C2=O | active: 2%
COc1ccc(-n2c(=O)c3c(c4cc(OC)ccc4n3C)n(Cc3cccc(C)c3)c2=O)cc1 | inactive: 77%
CCn1c(SCCN2CCOCC2)nnc1C1CCCCC1 | inactive: 66%
COc1ccc2c(c1)c(=O)c(S(=O)(=O)c1ccccc1)cn2CC(=O)Nc1ccc(C)c(Cl)c1 | inactive: 97%
Clc1ccccc1-c1nnc(COc2ccccc2)o1 | inactive: 50%
Cc1ccc(CN(Cc2ccco2)C(=O)c2oc3cc(Br)ccc3c2C)cc1 | active: 43%
CC(C)CNC(=S)N1CCC(c2nc(-c3ccc(F)cc3)no2)CC1 | inactive: 54%
CCOC(=O)c1ccc(NC(=O)CSc2nc3cc4ccccc4cc3[nH]2)cc1 | inactive: 65%
Cc1nc2nc(NC(=O)c3ccc(C(C)(C)C)cc3)[nH]n2c(=O)c1Cc1ccccc1 | inactive: 108%
CC1Cc2ccccc2N1C(=O)Cn1nnc(-c2ccccc2F)n1 (centres undefined) | inactive: 91%
Cc1ccc(-n2c(=O)c3c4c(sc3n(Cc3cc(=O)n5ccccc5n3)c2=O)CCC4)cc1C | inactive: 172%
COc1ccc(CNC(=O)Cn2ccc3cc(S(=O)(=O)N4CCCCC4)ccc32)cc1OC | inactive: 96%
COc1ccc(OC)c(NC(=O)CN2C(=O)CC(C)Sc3ccccc32)c1 (centres undefined) | inactive: 82%
CC(C)CCn1nnnc1CN1CCN(Cc2ccc3c(c2)OCO3)CC1 | inactive: 69%
N#Cc1c(N)nc2c(c1-c1ccccc1)CCCC2 | inactive: 102%
O=C(CCOc1ccccc1)N(Cc1cccnc1)c1nc2ccc(Cl)cc2s1 | inactive: 84%
CCOc1ccc(NC(=O)CSc2oc(-c3ccc(F)cc3)nc2S(=O)(=O)c2ccc(C)cc2)cc1 | inactive: 63%
CCn1cc(C(=O)NCCc2ccc(OC)c(OC)c2)c(=O)c2cc(S(=O)(=O)N3CCCCCC3)ccc21 | inactive: 123%
CCOC(=O)c1sc2ccccc2c1S(=O)(=O)Nc1ccc(C(C)=O)cc1 | inactive: 92%
CC(=O)c1ccc(NS(=O)(=O)c2c(C)nc3scc(C)n3c2=O)cc1 | inactive: 88%
Cc1cccc(Cn2c(=O)n(Cc3ccccc3)c(=O)c3c2c2cc(C)ccc2n3C)c1 | inactive: 78%
NC(=O)CN1c2cccc3cccc(c23)S1(=O)=O | inactive: 104%

SMILES | survival
CCc1ccc(N(CC)C(=O)Cn2nc(Cc3cccnc3)c3ccccc3c2=O)cc1 | inactive: 81%
CSc1ncc(C(=O)Nc2ccc(C)c(Cl)c2)c(-c2ccccc2)n1 | inactive: 92%
COc1ccc(Cl)cc1NC(=O)N(C)CCc1c(C)nn(C)c1C | inactive: 79%
COc1ccccc1NC(=O)c1oc2ccccc2c1NC(=O)COc1cccc(C)c1 | inactive: 72%
Cc1ccc2oc(-c3ccc(C)c(NC(=O)C(C)(C)Oc4ccc(Cl)cc4)c3)nc2c1 | active: 13%
CC1=C(C(=O)OCC2CCCCC2)C(c2ccc(Cl)cc2)CC(=O)N1 (centres undefined) | inactive: 96%
O=C1N(Cc2ccccc2Cl)c2ccccc2C1(O)c1c[nH]c2ccccc12 (centres undefined) | inactive: 64%
CC1(C)N=C(SCc2ccccc2Cl)c2ccccc2N1 | inactive: 105%
Cc1ccc(S(=O)(=O)c2nnn3c2nc(NC(C)C)c2cc(Cl)ccc23)cc1C | inactive: 97%
CC1(C)N=C2C(=[N+]1[O-])CCC/C2=N/O | inactive: 95%
CCCCNC(=O)CSc1nc2n[nH]c(C)c2c(=N)n1-c1cccc(Cl)c1C | inactive: 124%
Cc1cccc(-c2noc(-c3cccnc3NCc3ccc(Cl)cc3)n2)c1 | inactive: 73%
COc1ccc(S(=O)(=O)Nc2ccc3oc4c(c3c2)CCCC4)cc1 | active: 27%
O=S(=O)(c1ccccc1)N1CCCC(C(F)(F)F)C1 (centres undefined) | inactive: 100%
COc1ccc2c(c1)sc1ncc(C(=O)NCc3ccccc3F)c(=O)n12 | inactive: 101%
O=C(OC(C(=O)NCc1ccc2c(c1)OCO2)c1ccccc1F)c1ccco1 (centres undefined) | inactive: 86%
CCN(CC)CN1C(=O)C2C3c4ccccc4C(c4ccccc43)C2C1=O (centres undefined) | inactive: 80%
Cc1sc2ncn(CC(=O)Nc3ccc(C(C)C)cc3)c(=O)c2c1S(=O)(=O)N1CCN(c2ncccn2)CC1 | inactive: 59%
COc1ccc(S(=O)(=O)N2CCC(C(=O)Nc3ccccc3)CC2)cc1OC | inactive: 63%
CCOC(=O)c1c(C)[nH]c(C)c1S(=O)(=O)NCC(=O)Nc1cccc(C#N)c1 | inactive: 128%
COc1cc(OC)cc(N2C(=O)N(Cc3ccc(C(C)(C)C)cc3)c3ccccc3S2(=O)=O)c1 | inactive: 76%
Cc1nn(-c2ccc(N3CCCCC3)nn2)c(C)c1CCC(=O)Nc1ccc(F)cc1F | inactive: 124%
COC(=O)c1scc(-c2ccc(C)cc2)c1S(=O)(=O)N1CCN(c2ccccc2)CC1 | inactive: 72%

SMILES | survival
O=C(CCSCc1cccc(Cl)c1)N1CCN(c2ccc(Cl)cc2)CC1 | inactive: 85%
Cc1ccccc1C(=O)N1CC(=O)Nc2ccc(Cl)cc2C1c1ccccc1 (centres undefined) | inactive: 58%
O=C(c1cccc(Cl)c1)N1c2nc(-c3ccco3)nn2C2(CCCCC2)[C@@H]2CCCC[C@@H]21 | inactive: 60%
CCOc1ccc(NS(=O)(=O)c2ccc(C(=O)N(C)C)s2)cc1 | inactive: 76%
C#CCn1c(=NC(=O)c2ccc3c(c2)OCCO3)sc2cc(OC)c(OC)cc21 | inactive: 102%
COc1ccc(CCNC(=O)CCCCn2c(=O)c3ccccc3n(CC(=O)Nc3c(C)cccc3C)c2=O)cc1OC | inactive: 115%
O=C(O)C1C2CCCCC21 (centres undefined) | inactive: 71%
Cc1cc(C)cc(NC(=O)CSc2nc(=O)n(CCN3CCOCC3)c3c2CCC3)c1 | inactive: 78%
COC(=O)c1c(NC(=O)Cc2coc3cc(C)ccc23)sc2c1CCC2 | inactive: 98%
O=C(NCc1cccs1)c1ccc2c(c1)N(Cc1cccc(F)c1)C(=O)c1ccccc1S2 | inactive: 85%
CCOC(=O)c1noc2nc(C)n(CC(=O)NC(C)CC)c(=O)c12 (centres undefined) | inactive: 126%
CC1(C)C/C(=N\O)C(C(O)c2ccccc2)C(C)(C)N1 (centres undefined) | inactive: 90%
Nc1c(C(=O)Nc2ccccc2Cl)c2ccccn2c1C(=O)c1ccccc1 | inactive: 66%
CCOc1ccc(NC(=O)c2c(NCc3cccc(OC)c3OC)sc3c2CCC3)cc1 | inactive: 75%
CCc1ccc(NC(=O)CN(c2ccc(Cl)cc2)S(=O)(=O)c2ccsc2C(=O)OC)cc1 | inactive: 134%
O=C(C1CCCN(S(=O)(=O)c2cccc3nsnc23)C1)N1CCN(c2ccccc2)CC1 (centres undefined) | inactive: 79%
COc1ccc(OC)c(CNC(=O)c2ccc3c(c2)c(C)c(C)n3Cc2ccc(Cl)cc2)c1 | inactive: 89%
CCOC(=O)N1CCN(C(=O)CN(c2ccccc2F)S(=O)(=O)c2ccc(C)cc2)CC1 | inactive: 55%
Cc1cc(N2CCC(C)CC2)nc2ccc(NC(=O)Cc3c(F)cccc3Cl)cc12 | inactive: 56%
Cc1ccc(Cn2cc(S(=O)(=O)c3cccc(Cl)c3)c(=O)c3cc(F)c(N4CCCCC4)cc32)cc1 | inactive: 78%

— PubChem BioAssay AID463173 (ICCB-Longwood Screening Facility, Harvard Medical School, 2010)
